The name of at least one read-out is uncertain.
Legend:
Format in all cases: in vivo
Conditions in all cases: foliar spray, 400 ppm or 100 ppm per scale
[1] = tested on: Pyricularia oryzae (rice blast)
[2] = tested on: Erysiphe graminis tritici (powdery mildew); assay: Greenhouse fungicide test, ERYSGT on wheat
[3] = tested on: Leptosphaeria nodorum (glume blotch); assay: Greenhouse fungicide test, LEPTNO on wheat
[4] = tested on: Puccinia recondita tritici (leaf rust); assay: Greenhouse fungicide test, PUCCRT on wheat

| Structure (SMILES) | control of disease, PYRIOR [1] | control of disease, ERYSGT [2] | control of disease, LEPTNO [3] | control of disease, PUCCRT [4] |
| --- | --- | --- | --- | --- |
| CCc1nccc(NC(=O)Cc2ccc(C(C)C)cc2)n1 [Compound 45, 4-(1-methylethyl)phenyl-N-(2-ethyl-4-pyrimidinyl)acetamide] | ++ (90-100% control at 400 ppm) | +++ (90-100% control at 100 ppm) | + (20-89% control at 400 ppm) | ++ (90-100% control at 400 ppm) |
| CCc1nccc(NC(=O)C(=CN(C)C)c2ccc(Oc3ccc(C#N)cc3)cc2)n1 [Compound 78, 3-(dimethylamino)-N-(2-ethyl-4-pyrimidinyl)-1-(4-(4-cyanophenoxy)phenyl)-2-propenamide] | - (0-19% control at 400 ppm) | - (0-19% control at 400 ppm) | - (0-19% control at 400 ppm) | ++ (90-100% control at 400 ppm) |
| CCc1nccc(NC(=O)Cc2ccc(Oc3ccccc3)cc2)n1 [Compound 47, 4-phenoxyphenyl-N-(2-ethyl-4-pyrimidinyl)acetamide] | ++ (90-100% control at 400 ppm) | +++ (90-100% control at 100 ppm) | ++ (90-100% control at 400 ppm) | ++ (90-100% control at 400 ppm) |
| CCc1nccc(NC(=O)Cc2ccc(Oc3ccc(Cl)cc3)cc2)n1 [Compound 17, 4-(4-chlorophenoxy)phenyl-N-(2-ethyl-4-pyrimidinyl)acetamide] | ++ (90-100% control at 400 ppm) | + (20-89% control at 400 ppm) | ++ (90-100% control at 400 ppm) | ++ (90-100% control at 400 ppm) |
| CCCCOc1ccc(CC(=O)Nc2ccnc(CC)n2)cc1 [Compound 44, 4-butoxyphenyl-N-(2-ethyl-4-pyrimidinyl)acetamide] | ++ (90-100% control at 400 ppm) | +++ (90-100% control at 100 ppm) | + (20-89% control at 400 ppm) | ++ (90-100% control at 400 ppm) |
| CCc1nccc(NC(=O)Cc2ccc(OCC(F)(F)F)cc2)n1 [Compound 9, 4-(2,2,2-trifluroethoxy)phenyl-N-(2-ethyl-4-pyrimidinyl)acetamide] | +++ (90-100% control at 100 ppm) | +++ (90-100% control at 100 ppm) | ++ (90-100% control at 400 ppm) | ++ (90-100% control at 400 ppm) |
| CC(C)c1nccc(NC(=O)Cc2ccc(Oc3ccc(C(F)(F)F)cc3)cc2)n1 [Compound 72, 4-(4-trifluoromethylphenoxy)phenyl-N-(2-(1-methylethyl)-4-pyrimidinyl)acetamide] | ++ (90-100% control at 400 ppm) | +++ (90-100% control at 100 ppm) | +++ (90-100% control at 100 ppm) | ++ (90-100% control at 400 ppm) |
| Cc1nccc(NC(=O)Cc2cccc(Oc3ccccc3)c2)n1 [Compound 8, 3-phenoxyphenyl-N-(2-methyl-4-pyrimidinyl)acetamide] | +++ (90-100% control at 100 ppm) | ++ (90-100% control at 400 ppm) | +++ (90-100% control at 100 ppm) | + (20-89% control at 400 ppm) |
| CCc1nccc(NC(=O)Cc2ccc(Oc3ccc(C#N)cn3)cc2)n1 [Compound 13, 4-(5-cyano-2-pyridinyloxy)phenyl-N-(2-ethyl-4-pyrimidinyl)acetamide] | + (20-89% control at 400 ppm) | ++ (90-100% control at 400 ppm) | + (20-89% control at 400 ppm) | ++ (90-100% control at 400 ppm) |
| CCc1nccc(NC(=O)Cc2ccc(Oc3ccc(F)cc3)cc2)n1 [Compound 10, 4-(4-fluorophenoxy)phenyl-N-(2-ethyl-4-pyrimidinyl)acetamide] | +++ (90-100% control at 100 ppm) | +++ (90-100% control at 100 ppm) | ++ (90-100% control at 400 ppm) | ++ (90-100% control at 400 ppm) |
| CCc1nccc(NC(=O)C(=CN(C)C)c2ccc(Oc3ccc(Cl)cc3)cc2)n1 [Compound 76, 3-(dimethylamino)-N-(2-ethyl-4-pyrimidinyl)-1-(4-(4-chlorophenoxy)phenyl)-2-propenamide] | ++ (90-100% control at 400 ppm) | - (0-19% control at 400 ppm) | +++ (90-100% control at 100 ppm) | ++ (90-100% control at 400 ppm) |
| CCc1nccc(NC(=O)Cc2ccc(Oc3ccc(Cl)cn3)cc2)n1 [Compound 37, 4-(5-chloro-2-pyridinyloxy)phenyl-N-(2-ethyl-4-pyrimidinyl)acetamide] | +++ (90-100% control at 100 ppm) | +++ (90-100% control at 100 ppm) | ++ (90-100% control at 400 ppm) | - (0-19% control at 400 ppm) |
| CC(C)(C)c1nccc(NC(=O)Cc2ccc(Oc3ccc(C(F)(F)F)cc3)cc2)n1 [Compound 62, 4-(4-trifluoromethylphenoxy)phenyl-N-(2-(1,1-dimethylethyl)-4-pyrimidinyl)acetamide] | ++ (90-100% control at 400 ppm) | ++ (90-100% control at 400 ppm) | +++ (90-100% control at 100 ppm) | ++ (90-100% control at 400 ppm) |
| CCNC=C(C(=O)Nc1ccnc(CC)n1)c1ccc(OC(F)(F)C(F)F)cc1 [Compound 75, 3-(ethylamino)-N-(2-ethyl-4-pyrimidinyl)-1-(4-(1,1,2,2-tetrafluoromethoxy)phenyl)-2-propenamide] | + (20-89% control at 400 ppm) | - (0-19% control at 400 ppm) | ++ (90-100% control at 400 ppm) | ++ (90-100% control at 400 ppm) |
| CC(C)c1nccc(NC(=O)Cc2ccc(OCC(F)(F)F)cc2)n1 [Compound 30, 4-(2,2,2-trifluroethoxy)phenyl-N-(2-(1-methylethyl)-4-pyrimidinyl)acetamide] | ++ (90-100% control at 400 ppm) | +++ (90-100% control at 100 ppm) | + (20-89% control at 400 ppm) | ++ (90-100% control at 400 ppm) |
| CCc1nccc(NC(=O)Cc2ccc(OCC(F)(F)F)cn2)n1 [Compound 35, 5-(2,2,2-trifluoromethoxy)-2-pyridinyl-N-(2-ethyl-4-pyrimidinyl)acetamide] | +++ (90-100% control at 100 ppm) | + (20-89% control at 400 ppm) | + (20-89% control at 400 ppm) | ++ (90-100% control at 400 ppm) |
| COCc1nccc(NC(=O)Cc2ccc(Oc3ccc(F)cc3)cc2)n1 [Compound 39, 4-(4-fluorophenoxy)phenyl-N-(2-(methoxymethyl)-4-pyrimidinyl)acetamide] | +++ (90-100% control at 100 ppm) | +++ (90-100% control at 100 ppm) | - (0-19% control at 400 ppm) | ++ (90-100% control at 400 ppm) |
| O=C(Cc1ccc(OCC(F)(F)F)cc1)Nc1ccncn1 [Compound 28, 4-(2,2,2-trifluroethoxy)phenyl-N-(4-pyrimidinyl)acetamide] | - (0-19% control at 400 ppm) | + (20-89% control at 400 ppm) | - (0-19% control at 400 ppm) | + (20-89% control at 400 ppm) |
| O=C(Cc1ccc(OCC(F)(F)F)cc1)Nc1ccnc(C2CC2)n1 [Compound 15, 4-(2,2,2-trifluroethoxy)phenyl-N-(2-cyclopropyl-4-pyrimidinyl)acetamide] | ++ (90-100% control at 400 ppm) | + (20-89% control at 400 ppm) | ++ (90-100% control at 400 ppm) | ++ (90-100% control at 400 ppm) |
| Cc1nccc(NC(=O)Cc2ccc(Oc3ccc(Cl)cc3)cc2)n1 [Compound 1, 4-(4-chlorophenoxy)phenyl-N-(2-methyl-4-pyrimidinyl)acetamide] | ++ (90-100% control at 400 ppm) | - (0-19% control at 400 ppm) | ++ (90-100% control at 400 ppm) | ++ (90-100% control at 400 ppm) |
| O=C(Cc1ccc(Oc2ccc(F)cc2)cc1)Nc1ccnc(-c2ccccc2)n1 [Compound 7, 4-(4-fluorophenoxy)phenyl-N-(2-phenyl-4-pyrimidinyl)acetamide] | - (0-19% control at 400 ppm) | + (20-89% control at 400 ppm) | + (20-89% control at 400 ppm) | + (20-89% control at 400 ppm) |
| CCc1nccc(NC(=O)Cc2ccc(-c3ccccc3)cc2)n1 [Compound 40] | + (20-89% control at 400 ppm) | + (20-89% control at 400 ppm) | ++ (90-100% control at 400 ppm) | ++ (90-100% control at 400 ppm) |
| CCc1nccc(NC(=O)Cc2ccc(Oc3ncc(C(F)(F)F)cc3F)cc2)n1 [Compound 32, 4-(3-fluoro-5-trifluromethyl-2-pyridinyloxy)phenyl-N-(2-ethyl-4-pyrimidinyl)acetamide] | ++ (90-100% control at 400 ppm) | ++ (90-100% control at 400 ppm) | +++ (90-100% control at 100 ppm) | ++ (90-100% control at 400 ppm) |

Source: US5556859A, “N-(4-pyrimidinyl)amide pesticides” (DowElanco, priority 1994, dated 1996)
